This assay addresses EGFP-tagged rat s-afadin (rat) (UniProt O35889). Kind of assay: co-IP; HEK293 cells co-expressing EGFP-tagged afadin variants and V5-tagged MAGUIN variants; lysate in 0.25% DDM in buffer A; GFP pAb and protein-G Sepharose, 4 °C; blot with the MAGUIN pAb or V5 mAb.

Sequences of proteins named here, by UniProt entry; tags and fusion partners are left off. A change or cut given only in a name is not applied to a line headed by its entry. A line that says so, or that is headed by a name, gives the form on record, which may keep a tag or linker.
EGFP-tagged rat s-afadin (O35889, form named): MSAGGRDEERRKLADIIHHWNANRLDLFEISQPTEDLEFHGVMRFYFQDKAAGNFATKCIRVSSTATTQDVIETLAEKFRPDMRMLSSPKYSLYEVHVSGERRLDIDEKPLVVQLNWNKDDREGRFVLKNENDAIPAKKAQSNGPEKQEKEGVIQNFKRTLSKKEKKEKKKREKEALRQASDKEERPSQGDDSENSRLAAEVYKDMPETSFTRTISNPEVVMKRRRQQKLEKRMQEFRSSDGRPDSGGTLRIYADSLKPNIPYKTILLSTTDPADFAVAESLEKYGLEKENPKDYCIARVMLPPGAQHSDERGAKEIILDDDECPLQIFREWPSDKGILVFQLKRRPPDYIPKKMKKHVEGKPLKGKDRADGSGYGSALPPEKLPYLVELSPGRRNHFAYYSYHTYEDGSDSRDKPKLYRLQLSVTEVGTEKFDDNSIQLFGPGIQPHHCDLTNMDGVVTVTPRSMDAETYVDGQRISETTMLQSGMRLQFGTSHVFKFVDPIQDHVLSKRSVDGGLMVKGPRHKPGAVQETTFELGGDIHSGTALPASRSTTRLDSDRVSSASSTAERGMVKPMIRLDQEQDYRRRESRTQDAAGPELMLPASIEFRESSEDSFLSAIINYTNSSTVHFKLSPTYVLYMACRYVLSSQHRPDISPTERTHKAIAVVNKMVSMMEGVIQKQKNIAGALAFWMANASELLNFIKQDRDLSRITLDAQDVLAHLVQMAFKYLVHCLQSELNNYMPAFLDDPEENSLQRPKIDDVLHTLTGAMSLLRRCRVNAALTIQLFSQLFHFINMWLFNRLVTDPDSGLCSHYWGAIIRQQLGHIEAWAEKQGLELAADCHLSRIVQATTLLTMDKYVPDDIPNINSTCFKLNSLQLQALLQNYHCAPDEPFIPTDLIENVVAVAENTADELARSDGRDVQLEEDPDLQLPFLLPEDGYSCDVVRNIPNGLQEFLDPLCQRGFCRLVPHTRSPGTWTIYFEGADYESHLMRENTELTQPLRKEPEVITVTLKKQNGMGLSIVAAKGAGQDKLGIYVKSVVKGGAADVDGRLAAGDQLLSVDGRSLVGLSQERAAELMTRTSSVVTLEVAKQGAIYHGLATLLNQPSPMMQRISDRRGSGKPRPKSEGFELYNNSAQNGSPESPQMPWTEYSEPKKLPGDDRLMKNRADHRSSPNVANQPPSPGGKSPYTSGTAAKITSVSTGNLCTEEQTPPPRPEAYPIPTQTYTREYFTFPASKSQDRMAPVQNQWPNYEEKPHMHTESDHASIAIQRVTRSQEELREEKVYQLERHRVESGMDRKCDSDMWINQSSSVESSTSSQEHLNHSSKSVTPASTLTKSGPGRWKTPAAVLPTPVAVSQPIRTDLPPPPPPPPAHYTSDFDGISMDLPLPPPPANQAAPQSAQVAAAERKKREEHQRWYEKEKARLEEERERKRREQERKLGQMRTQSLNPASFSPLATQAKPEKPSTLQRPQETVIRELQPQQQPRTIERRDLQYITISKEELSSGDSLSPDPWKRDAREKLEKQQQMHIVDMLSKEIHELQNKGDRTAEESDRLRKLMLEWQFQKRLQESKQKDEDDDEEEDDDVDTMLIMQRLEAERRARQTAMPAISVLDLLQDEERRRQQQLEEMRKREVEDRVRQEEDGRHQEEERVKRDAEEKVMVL

No constants are given. Whether binding was seen depends on the method and setting. Binding seen in cells or lysates may run through a third protein. Tags and fused reporters may be left off the sequences shown.

B1: V5-tagged MAGUIN-2-N (aa 1-572) (domain or fragment, UniProt Q80YA9-1 1-572)
chain: MALIMEPVSKWSPSQVVDWMKGLDDCLQQYIKNFEREKISGDQLLRITHQELEDLGVSRIGHQELILEAVDLLCALNYGLETENLKTLSHKLNASAKNLQNFITGRRRSGHYDGRTSRKLPNDFLTSVVDLIGAAKSLLAWLDRSPFAAVTDYSVTRNNVIQLCLELTTIVQQDCTVYETENKILHVCKTLSGVCDHIISLSSDPLVSQSAHLEVIQLANIKPSEGLGMYIKSTYDGLHVITGTTENSPADRCKKIHAGDEVIQVNHQTVVGWQLKNLVNALREDPSGVILTLKKRPQSMLTSAPALLKNMRWKPLALQPLIPRSPTSSVATPSSTISTPTKRDSSALQDLYIPPPPAEPYIPRDEKGNLPCEDLRGHMVGKPVHKGSESPNSFLDQEYRKRFNIVEEDTVLYCYEYEKGRSSSQGRRESTPTYGKLRPISMPVEYNWVGDYEDPNKMKRDSRRENSLLRYMSNEKIAQEEYMFQRNSKKDTGKKSKKKGDKSNSPAHYSLLPSLQMDALRQDIMGTPVPETTLYHTFQQSSLQHKSKKKNKGAISGKSKRRISCKDLGRGD
On to B1, for which the binding result was “no binding”.

The values above are taken from PMC10040811.
